# Some of the results follow.
# Assays:
# Experiment in all cases: glycan array binding signal (z-score within array); higher = stronger binding
# Details in all cases: glycan notation: IUPAC condensed, linker removed
# [1] = biological target: Neu5Ac(a2-6)GlcNAc(b1-4)GlcNAc
# Summary of the method: (§1)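 Negative Z-scores can be read as non-binding. The Z-score is calculated within each array and then averaged across arrays of one protein sequence at different concentrations or buffers and across linkers. Arrays, 3228 in all, were curated from the Consortium for Functional Glycomics database and kept only where the protein sequence was available.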
# [2] = biological target: Neu5Ac(a2-6)GlcNAc(b1-4)GlcNAc(b1-4)GlcNAc
# Summary of the method: as §1
# [3] = biological target: Neu5Ac(a2-8)Neu5Ac
# Summary of the method: as §1
# [4] = biological target: Neu5Ac(a2-8)Neu5Ac(a2-3)Gal(b1-3)GalNAc(b1-4)[Neu5Ac(a2-3)]Gal(b1-4)Glc
# Summary of the method: as §1
# [5] = biological target: Neu5Ac(a2-8)Neu5Ac(a2-3)Gal(b1-3)GalNAc(b1-4)[Neu5Ac(a2-8)Neu5Ac(a2-3)]Gal(b1-4)Glc
# Summary of the method: as §1
# [6] = biological target: Neu5Ac(a2-8)Neu5Ac(a2-3)Gal(b1-4)Glc
# Summary of the method: as §1
# [7] = biological target: Neu5Ac(a2-8)Neu5Ac(a2-3)Gal(b1-4)GlcNAc
# Summary of the method: as §1
# [8] = biological target: Neu5Ac(a2-8)Neu5Ac(a2-3)[Gal(b1-3)GalNAc(b1-4)]Gal(b1-4)Glc
# Summary of the method: as §1
# [9] = biological target: Neu5Ac(a2-8)Neu5Ac(a2-3)[GalNAc(b1-4)]Gal(b1-4)Glc
# Summary of the method: as §1
# [10] = biological target: Neu5Ac(a2-8)Neu5Ac(a2-8)Neu5Ac
# Summary of the method: as §1
# [11] = biological target: Neu5Ac(a2-8)Neu5Ac(a2-8)Neu5Ac(a2-3)Gal(b1-4)Glc
# Summary of the method: as §1
# [12] = biological target: Neu5Ac(a2-8)Neu5Ac(a2-8)Neu5Ac(a2-3)[Gal(b1-3)GalNAc(b1-4)]Gal(b1-4)Glc
# Summary of the method: as §1
# [13] = biological target: Neu5Ac(a2-8)Neu5Ac(a2-8)Neu5Ac(a2-3)[GalNAc(b1-4)]Gal(b1-4)Glc
# Summary of the method: as §1
# [14] = biological target: Neu5Ac(a2-8)Neu5Ac(a2-8)Neu5Ac(a2-8)Neu5Ac(a2-3)[GalNAc(b1-4)]Gal(b1-4)Glc
# Summary of the method: as §1
# [15] = biological target: Neu5Ac(a2-8)Neu5Gc(a2-3)Gal(b1-4)GlcNAc
# Summary of the method: as §1
# [16] = biological target: Neu5Ac(b2-6)Gal(b1-4)GlcNAc
# Summary of the method: as §1
# [17] = biological target: Neu5Ac(b2-6)GalNAc
# Summary of the method: as §1
# [18] = biological target: Neu5Ac9Ac(a2-3)Gal(b1-3)GlcNAc
# Summary of the method: as §1
# [19] = biological target: Neu5Ac9Ac(a2-3)Gal(b1-4)GlcNAc
# Summary of the method: as §1
# [20] = biological target: Neu5Ac9Ac(a2-6)Gal(b1-4)GlcNAc
# Summary of the method: as §1
# [21] = biological target: Neu5Gc(a2-3)Gal(b1-3)GlcNAc
# Summary of the method: as §1
# [22] = biological target: Neu5Gc(a2-3)Gal(b1-3)[Fuc(a1-4)]GlcNAc
# Summary of the method: as §1
# [23] = biological target: Neu5Gc(a2-3)Gal(b1-4)Glc
# Summary of the method: as §1
# [24] = biological target: Neu5Gc(a2-3)Gal(b1-4)GlcNAc
# Summary of the method: as §1
# [25] = biological target: Neu5Gc(a2-3)Gal(b1-4)GlcNAc(b1-3)Gal(b1-4)GlcNAc(b1-2)Man(a1-3)[Neu5Gc(a2-3)Gal(b1-4)GlcNAc(b1-3)Gal(b1-4)GlcNAc(b1-2)Man(a1-6)]Man(b1-4)GlcNAc(b1-4)GlcNAc
# Summary of the method: as §1
# [26] = biological target: Neu5Gc(a2-3)Gal(b1-4)[Fuc(a1-3)]GlcNAc
# Summary of the method: as §1
# [27] = biological target: Neu5Gc(a2-6)Gal(b1-4)GlcNAc
# Summary of the method: as §1
# [28] = biological target: Neu5Gc(a2-6)GalNAc
# Summary of the method: as §1
# [29] = biological target: Neu5Gc(a2-8)Neu5Ac(a2-3)Gal(b1-4)GlcNAc
# Summary of the method: as §1
# [30] = biological target: Neu5Gc(a2-8)Neu5Gc(a2-3)Gal(b1-4)GlcNAc
# Summary of the method: as §1
# [31] = biological target: Neu5Gc(a2-8)Neu5Gc(a2-3)Gal(b1-4)GlcNAc(b1-3)Gal(b1-4)GlcNAc
# Summary of the method: as §1
# [32] = biological target: Neu5Gc(a2-8)Neu5Gc(a2-6)Gal(b1-4)GlcNAc
# Summary of the method: as §1
# [33] = biological target: Neu5Gc(b2-6)Gal(b1-4)GlcNAc
# Summary of the method: as §1
binder,measurement,setting,value
"Gal 3C (Homo sapiens), P17931 (protein) YGAPAGPLIVPYNLPLPGGVVPRMLITILGTVKPNANRIALDFQRGNDVAFHFNPRFNENNRRVIVCNTKLDNNWGREERQSVFPFESGKPFKIQVLVEPDHFKVAVNDAHLLQYNHRVKKLNEISKLGISGDIDLTSASYTMI",glycan array binding signal (z-score),[1],-0.354
same,glycan array binding signal (z-score),[2],-0.319
same,glycan array binding signal (z-score),[3],-0.25
same,glycan array binding signal (z-score),[4],-0.329
same,glycan array binding signal (z-score),[5],-0.226
same,glycan array binding signal (z-score),[6],-0.35
same,glycan array binding signal (z-score),[7],-0.266
same,glycan array binding signal (z-score),[8],-0.3
same,glycan array binding signal (z-score),[9],-0.291
same,glycan array binding signal (z-score),[10],-0.323
same,glycan array binding signal (z-score),[11],-0.331
same,glycan array binding signal (z-score),[12],-0.326
same,glycan array binding signal (z-score),[13],-0.185
same,glycan array binding signal (z-score),[14],-0.318
same,glycan array binding signal (z-score),[15],-0.342
same,glycan array binding signal (z-score),[16],-0.332
same,glycan array binding signal (z-score),[17],-0.354
same,glycan array binding signal (z-score),[18],-0.309
same,glycan array binding signal (z-score),[19],-0.019
same,glycan array binding signal (z-score),[20],-0.257
same,glycan array binding signal (z-score),[21],-0.304
same,glycan array binding signal (z-score),[22],-0.213
same,glycan array binding signal (z-score),[23],-0.25
same,glycan array binding signal (z-score),[24],-0.242
same,glycan array binding signal (z-score),[25],-0.152
same,glycan array binding signal (z-score),[26],-0.278
same,glycan array binding signal (z-score),[27],-0.31
same,glycan array binding signal (z-score),[28],-0.335
same,glycan array binding signal (z-score),[29],-0.295
same,glycan array binding signal (z-score),[30],-0.336
same,glycan array binding signal (z-score),[31],-0.301
same,glycan array binding signal (z-score),[32],-0.295
same,glycan array binding signal (z-score),[33],-0.327
